Among the data in the supplement of paper PMC8512760 are cell viability values, retold here.

Holding throughout (assay): cell viability relative to vehicle (% of vehicle); basal-like triple-negative breast cancer lines; higher = less cytotoxic
What all share (conditions): 10 µM; 72 h

For assay [1], the system named is HCC-1143.
Assay [2] has as its system HCC-1187.
Assay [3] concerns MDA-468.
Assay [4] concerns SUM-149.

The list shows a part of the results. Most values come without repeats; read them as rough.
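Further: stably firefly luciferase-GFP labeled cells in 96-well plates, viability read as luciferase photon flux after d-luciferin addition, treated wells normalized to vehicle wells, single-dose high-throughput screen.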

Consider `CC(C)(Sc1cc(C(C)(C)C)c(O)c(C(C)(C)C)c1)Sc1cc(C(C)(C)C)c(O)c(C(C)(C)C)c1` [Probucol], for which the cell viability is 74.3 in assay [1], 79.7 in assay [2], 102 in assay [3] and 107 in assay [4].

Turning to `CCOC(=O)CCC(=O)OC1C(OC2C(C)C(OC3CC(C)(OC)C(O)C(C)O3)C(C)C(=O)OC(CC)C(C)(O)C(O)C(C)C(=O)C(C)CC2(C)O)OC(C)CC1N(C)C` (configuration not stated) [Erythromycin Ethylsuccinate], the cell viability in assay [1] stood at 90.6; in assay [2], 86.7; in assay [3] it was 108; in assay [4], 104.

For `CCCOc1ccc(C(=O)OCCN(CC)CC)cc1N.Cl` [Proparacaine HCl], the cell viability turned out to be 68.2 in assay [1], 100 in assay [2], 106 in assay [3] and 98.4 in assay [4].

In the case of `CC(O)C1C(=O)N2C(C(=O)OCOC(=O)C(C)(C)C)=C(SC3CN(C4=NCCS4)C3)C(C)C12` (configuration not stated) [Tebipenempivoxil], the cell viability turned out to be 78.6 in assay [1], 113 in assay [2], 118 in assay [3] and 128 in assay [4].

Consider `Clc1ccc(CCC(Cn2ccnc2)Sc2c(Cl)cccc2Cl)cc1.O=[N+]([O-])O` (configuration not stated) [Butoconazole nitrate], for which the cell viability turned out to be 117 in assay [1], 117 in assay [2], 133 in assay [3] and 148 in assay [4].

Regarding `CCCC(=O)[O-].[Na+]` [Sodium butyrate], the cell viability was found to be 75.9 in assay [1], 101 in assay [2], 107 in assay [3] and 80.2 in assay [4].

As to `CC(c1ncncc1F)C(O)(Cn1cncn1)c1ccc(F)cc1F` (configuration not stated) [Voriconazole], the cell viability in assay [1] worked out at 92.8; in assay [2] it was 71; in assay [3], 87.6; in assay [4], 112.

On to `CC1C=CC=CC=CC=CC=CC=CC=CC(OC2OC(C)C(O)C(N)C2O)CC2OC(O)(CC(O)CC(O)C(O)CCC(O)CC(O)CC(=O)OC(C)C(C)C1O)CC(O)C2C(=O)O` (configuration not stated) [Amphotericin B], for which the cell viability in assay [1] amounted to 69.6; in assay [2], 93; in assay [3], 115; in assay [4] it was 112.
